This note sets out measurements from article PMC12820563, “FoxP3 forms a head-to-head dimer in vivo and stabilizes its multimerization on adjacent microsatellites”.

The list shows a part of the results.

The target in the test is T1, MBP-FoxP1dN (Mus musculus, UniProt P58462 326-579).
T1 sequence: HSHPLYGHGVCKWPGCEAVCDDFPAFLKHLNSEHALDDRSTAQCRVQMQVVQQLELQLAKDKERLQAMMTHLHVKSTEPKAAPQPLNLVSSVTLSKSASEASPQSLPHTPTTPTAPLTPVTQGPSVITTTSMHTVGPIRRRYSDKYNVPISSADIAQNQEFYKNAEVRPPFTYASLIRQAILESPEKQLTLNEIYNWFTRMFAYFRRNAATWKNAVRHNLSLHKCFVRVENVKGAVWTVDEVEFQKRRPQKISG
Kind of test: PD-seq (MBP pull-down with sequencing); 20 mM Tris-HCl pH 7.5, 100 mM NaCl, 1.5 mM MgCl2, 0.4 uM protein, 0.1 uM dsDNA library, 30 min, room temperature, amylose pull-down; high values mean tight binding. The following applies: protein: recombinant; tags: His6-MBP; chain copies: 2; dsDNA, one strand shown. The essentials:
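E. coli-expressed mouse FoxP3 or FoxP1 fragment, N-terminus removed and tagged with His6-MBP, was used at 0.4 µM against 0.1 µM of a Klenow-filled degenerate double-stranded DNA library. After 30 min at room temperature in Tris pH 7.5 buffer with NaCl and MgCl2, complexes were pulled down on amylose resin and washed three times. Binding is pull-down over input reads-per-million enrichment from pooled replicates of the proteinase K-released, PCR-barcoded, Illumina-sequenced DNA.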
As to “GATGATTGTTCTCCCAGCTGATGAATTTAAATCATCGAGTAAACAAATTTTCCTAATCTTTCTGTTCAAGCGCCATCTAC”, the binding signal is 0.98 RPM ratio (pull-down/input).
Consider “GATGATTGTTCTCCCAGCTGATGAATTAGCCGGGTCGAGTAAACAAATTTTCCTAATCTTTCTGTTCAAGCGCCATCTAC”, for which the binding signal is 0.765 RPM ratio (pull-down/input).
The same measure for “GATGATTGTTCTCCCAGCTGATGAATTCGTTGCGTCGAGTAAACAAATTTTCCTAATCTTTCTGTTCAAGCGCCATCTAC”: 0.998 RPM ratio (pull-down/input).
The same measure for “GATGATTGTTCTCCCAGCTGATGAATTTCTCATGTCGAGTAAACAAATTTTCCTAATCTTTCTGTTCAAGCGCCATCTAC”: 0.813 RPM ratio (pull-down/input); for “GATGATTGTTCTCCCAGCTGATGAATTCTTCATTTCGAGTAAACAAATTTTCCTAATCTTTCTGTTCAAGCGCCATCTAC”: 0.908 RPM ratio (pull-down/input); for “GATGATTGTTCTCCCAGCTGATGAATTTCGGTACTCGAGTAAACAAATTTTCCTAATCTTTCTGTTCAAGCGCCATCTAC”: 0.848 RPM ratio (pull-down/input).
For the sequence “GATGATTGTTCTCCCAGCTGATGAATTAGCTGGTTCGAGTAAACAAATTTTCCTAATCTTTCTGTTCAAGCGCCATCTAC”, the binding signal was 0.887 RPM ratio (pull-down/input).
With “GATGATTGTTCTCCCAGCTGATGAATTAGCGGAATCGAGTAAACAAATTTTCCTAATCTTTCTGTTCAAGCGCCATCTAC”, the binding signal is 0.962 RPM ratio (pull-down/input).
Turning to “GATGATTGTTCTCCCAGCTGATGAATTATCGGCGTCGAGTAAACAAATTTTCCTAATCTTTCTGTTCAAGCGCCATCTAC”, the binding signal was 0.997 RPM ratio (pull-down/input).
Take “GATGATTGTTCTCCCAGCTGATGAATTTTTCCAATCGAGTAAACAAATTTTCCTAATCTTTCTGTTCAAGCGCCATCTAC”: the binding signal is 1.05 RPM ratio (pull-down/input).
The same measure for “GATGATTGTTCTCCCAGCTGATGAATTTGAGATTTCGAGTAAACAAATTTTCCTAATCTTTCTGTTCAAGCGCCATCTAC”: 0.895 RPM ratio (pull-down/input); for “GATGATTGTTCTCCCAGCTGATGAATTAATGAGCTCGAGTAAACAAATTTTCCTAATCTTTCTGTTCAAGCGCCATCTAC”: 0.843 RPM ratio (pull-down/input); for “GATGATTGTTCTCCCAGCTGATGAATTCCCGTCCTCGAGTAAACAAATTTTCCTAATCTTTCTGTTCAAGCGCCATCTAC”: 0.781 RPM ratio (pull-down/input).
Under “GATGATTGTTCTCCCAGCTGATGAATTTTATATGTCGAGTAAACAAATTTTCCTAATCTTTCTGTTCAAGCGCCATCTAC” stands 0.988 RPM ratio (pull-down/input); under “GATGATTGTTCTCCCAGCTGATGAATTGCCGAGCTCGAGTAAACAAATTTTCCTAATCTTTCTGTTCAAGCGCCATCTAC”, 0.861 RPM ratio (pull-down/input).
Under “GATGATTGTTCTCCCAGCTGATGAATTGGGTGGATCGAGTAAACAAATTTTCCTAATCTTTCTGTTCAAGCGCCATCTAC” stands 0.852 RPM ratio (pull-down/input); under “GATGATTGTTCTCCCAGCTGATGAATTAACATTATCGAGTAAACAAATTTTCCTAATCTTTCTGTTCAAGCGCCATCTAC”, 1.16 RPM ratio (pull-down/input); under “GATGATTGTTCTCCCAGCTGATGAATTTTCCTACTCGAGTAAACAAATTTTCCTAATCTTTCTGTTCAAGCGCCATCTAC”, 0.89 RPM ratio (pull-down/input).
In the case of “GATGATTGTTCTCCCAGCTGATGAATTACTGTGTTCGAGTAAACAAATTTTCCTAATCTTTCTGTTCAAGCGCCATCTAC”, the binding signal is 1.34 RPM ratio (pull-down/input).
The same measure for “GATGATTGTTCTCCCAGCTGATGAATTAGCGAAGTCGAGTAAACAAATTTTCCTAATCTTTCTGTTCAAGCGCCATCTAC”: 0.825 RPM ratio (pull-down/input); for “GATGATTGTTCTCCCAGCTGATGAATTATTCATCTCGAGTAAACAAATTTTCCTAATCTTTCTGTTCAAGCGCCATCTAC”: 1.05 RPM ratio (pull-down/input); for “GATGATTGTTCTCCCAGCTGATGAATTTTGCTGGTCGAGTAAACAAATTTTCCTAATCTTTCTGTTCAAGCGCCATCTAC”: 0.918 RPM ratio (pull-down/input).
As to “GATGATTGTTCTCCCAGCTGATGAATTGCGAGAGTCGAGTAAACAAATTTTCCTAATCTTTCTGTTCAAGCGCCATCTAC”, the binding signal was 0.971 RPM ratio (pull-down/input).
The same measure for “GATGATTGTTCTCCCAGCTGATGAATTCCAAAAATCGAGTAAACAAATTTTCCTAATCTTTCTGTTCAAGCGCCATCTAC”: 1 RPM ratio (pull-down/input); for “GATGATTGTTCTCCCAGCTGATGAATTACCGCAGTCGAGTAAACAAATTTTCCTAATCTTTCTGTTCAAGCGCCATCTAC”: 0.938 RPM ratio (pull-down/input).
As to “GATGATTGTTCTCCCAGCTGATGAATTCGATGAGTCGAGTAAACAAATTTTCCTAATCTTTCTGTTCAAGCGCCATCTAC”, the binding signal is 0.87 RPM ratio (pull-down/input).
In the case of “GATGATTGTTCTCCCAGCTGATGAATTAATAAGGTCGAGTAAACAAATTTTCCTAATCTTTCTGTTCAAGCGCCATCTAC”, the binding signal is 0.941 RPM ratio (pull-down/input).
Under “GATGATTGTTCTCCCAGCTGATGAATTGCTCGTTTCGAGTAAACAAATTTTCCTAATCTTTCTGTTCAAGCGCCATCTAC” stands 0.932 RPM ratio (pull-down/input); under “GATGATTGTTCTCCCAGCTGATGAATTGCATCTGTCGAGTAAACAAATTTTCCTAATCTTTCTGTTCAAGCGCCATCTAC”, 1.51 RPM ratio (pull-down/input); under “GATGATTGTTCTCCCAGCTGATGAATTTGAGGAGTCGAGTAAACAAATTTTCCTAATCTTTCTGTTCAAGCGCCATCTAC”, 0.805 RPM ratio (pull-down/input).
Consider “GATGATTGTTCTCCCAGCTGATGAATTCTCCTTCTCGAGTAAACAAATTTTCCTAATCTTTCTGTTCAAGCGCCATCTAC”, for which the binding signal was 0.78 RPM ratio (pull-down/input).
The same measure for “GATGATTGTTCTCCCAGCTGATGAATTCAGACGATCGAGTAAACAAATTTTCCTAATCTTTCTGTTCAAGCGCCATCTAC”: 0.763 RPM ratio (pull-down/input).
